{"source": "PubChem BioAssay AID1461", "about": "(National Center for Advancing Translational Sciences (NCATS), 2008)", "note": "Out of some 220,000 compounds screened, about 2,300 (1%) were called active. The inconclusive results got no clear call from the source; some entries with a clear call stand among them for comparison. Calls come from the whole dose curve; as a rule, active = well fitted inhibition curve with a large enough effect; inconclusive = small, poorly fitted or top-dose-only effect, or effect the other way; inactive = no such curve, though single readings can be large or run the other way. Potencies of inconclusive entries are left out as doubtful fits. % is set by controls: 0 for no effect and ±100 for the full control effect; potency is the fitted concentration of half-maximal effect; tags give direction and shape of the fitted curve."}
{"target": "Neuropeptide S receptor (Homo sapiens) (UniProt Q6W5P4)", "sequence (Q6W5P4 whole entry, looked up)": "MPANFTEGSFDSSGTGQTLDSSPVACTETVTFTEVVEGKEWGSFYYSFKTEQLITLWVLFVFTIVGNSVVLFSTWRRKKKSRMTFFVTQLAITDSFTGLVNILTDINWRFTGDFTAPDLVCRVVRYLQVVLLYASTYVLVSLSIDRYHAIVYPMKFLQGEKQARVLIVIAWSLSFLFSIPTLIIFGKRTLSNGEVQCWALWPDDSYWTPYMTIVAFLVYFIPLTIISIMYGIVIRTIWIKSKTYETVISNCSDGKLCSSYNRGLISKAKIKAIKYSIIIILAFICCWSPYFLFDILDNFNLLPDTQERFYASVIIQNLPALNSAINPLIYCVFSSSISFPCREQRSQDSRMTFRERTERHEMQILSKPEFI", "assay": "qHTS Assay for Antagonists of the Neuropeptide S Receptor: cAMP Signal Transduction; note: nearly all actives have a fitted effect of over 50% in size", "conditions": "CHO-NPSR cells, cAMP TR-FRET, antagonist mode; activity change, negative = inhibition: at 38.3 µM (top of the series) unless noted"}
{"smiles": "CCOC(=O)C1CCN(C(c2cc3ccc(C)c(C)c3[nH]c2=O)c2nnnn2C2CCCCC2)CC1", "note": "(configuration not stated)", "Potency": "inconclusive [inhibitor, partial curve]"}
{"smiles": "CCOC(=O)Cn1nnnc1CN(Cc1cccs1)Cc1cc2cc(C)ccc2[nH]c1=O", "activity change, negative = inhibition": "inactive: -30% [at 46.1 µM]"}
{"smiles": "COc1cc(C2C(C#N)=C(C)NC3=C2C(=O)c2ccccc23)cc(OC)c1OC", "note": "(configuration not stated)", "Potency": "inconclusive [activator, full curve]"}
{"smiles": "Cc1cccc(CCNS(=O)(=O)c2cnc[nH]2)c1", "Potency": "inconclusive [inhibitor, single point]"}
{"smiles": "CCO[C@@H]1OC(C(=O)N2CCN(Cc3ccc4c(c3)OCO4)CC2)=C[C@H](c2ccc(Br)cc2)[C@H]1CCCO", "Potency": "inconclusive [activator, partial curve]"}
{"smiles": "Cc1cccc(C(=O)c2cnc3ccccc3c2-c2ccccc2)c1", "Potency": "inconclusive [inhibitor, single point]"}
{"smiles": "CCc1nnc(NC(=O)c2ccc3ncsc3c2)s1", "Potency": "inconclusive [activator, single point]"}
{"smiles": "CCCN(CCC)c1nc(NC2CCN(C(=O)OCC)CC2)nc(OC)n1", "Potency": "inconclusive [inhibitor, partial curve]"}
{"smiles": "COC(=O)CNC(=O)c1cc(-c2ccncc2)nc2c(C)c(Cl)ccc12", "Potency": "inconclusive [inhibitor, single point]"}
{"smiles": "CN(C)c1ccc(C(=O)NNC(=O)c2ccc(Cl)cc2)cc1", "activity change, negative = inhibition": "inactive: -21.2%"}
{"smiles": "CCCC1Cc2nc(N3CCCCC3)c(C#N)cc2CO1", "note": "(configuration not stated)", "Potency": "inconclusive [inhibitor, full curve, poor fit]"}
{"smiles": "COc1ccccc1/C=C(/CC(=O)NCc1ccccc1)c1nc2ccccc2s1", "Potency": "inconclusive [inhibitor, single point]"}
{"smiles": "CC(C)(C)OC(=O)N1CCN(c2ccc(CNC(=O)c3ccc(Cl)cc3)cc2)CC1", "Potency": "inconclusive [inhibitor, single point]"}
{"smiles": "CCN(CC)c1nc(Oc2ccc(C(=O)OC)cc2)nc(N2CCOCC2)n1", "Potency": "inconclusive [inhibitor, single point]"}
{"smiles": "CC1CCCN(C2=NC(=O)/C(=C/c3cn(-c4ccccc4)nc3-c3cccc(S(=O)(=O)N(C)C)c3)S2)C1", "note": "(configuration not stated)", "Potency": "inconclusive [inhibitor, full curve, poor fit]"}
{"smiles": "O=C(Nc1ccc(Cl)c(S(=O)(=O)Nc2ccccc2Cl)c1)c1cccs1", "activity change, negative = inhibition": "inactive: -25.8%"}
{"smiles": "CCN1/C(=C/c2ccc3cc(C)ccc3[n+]2C)Sc2ccc3sccc3c21", "Potency": "inconclusive [inhibitor, single point]"}
{"smiles": "Cc1nc(SCC(=O)N2CCCc3ccccc32)c2oc3ccccc3c2n1", "Potency": "inconclusive [inhibitor, partial curve, poor fit]"}
{"smiles": "O=C(CN1CCN(Cc2ccccc2)CC1)Nc1ccccc1-c1ccccc1", "Potency": "inconclusive [activator, partial curve]"}
{"smiles": "O=C(NCCCNC(=O)c1cccs1)c1cccs1", "activity change, negative = inhibition": "inactive: -9.84% [at 46.1 µM]"}
{"smiles": "CCOC(=O)C1=C(c2cccc(Oc3ccccc3)c2)NC(=S)NC1C", "note": "(configuration not stated)", "Potency": "inconclusive [inhibitor, single point]"}
{"smiles": "O=C(O)C1=C(C(=O)Nc2ccc(F)c(Cl)c2)CCCC1", "Potency": "inconclusive [activator, single point]"}
{"smiles": "N#Cc1c(C(F)(F)F)cc(-c2ccco2)nc1SCc1ccncc1", "Potency": "inconclusive [inhibitor, partial curve]"}
{"smiles": "O=C(CN1CCC(C(O)(c2ccccc2)c2ccccc2)CC1)Nc1cc(Cl)ccc1Cl", "Potency": "inconclusive [inhibitor, partial curve]"}
{"smiles": "Cc1cc2c(c(=O)n1Cc1cccnc1)C(c1ccc(F)cc1)C(C#N)=C(N)O2", "note": "(configuration not stated)", "Potency": "inconclusive [inhibitor, single point]"}
{"smiles": "S=c1[nH]nc([C@@H]2C[C@H]2c2ccccc2)n1-c1ccccc1Cl", "Potency": "inconclusive [activator, partial curve]"}
{"smiles": "Cc1cc(C)n(-c2ccc(C(=O)OCn3nnc4ccccc4c3=O)cc2)n1", "Potency": "inconclusive [inhibitor, single point]"}
{"smiles": "COC(=O)C(NC(=O)c1ccc(OC)cc1)(Nc1ncc(S(=O)(=O)c2ccc([N+](=O)[O-])cc2)s1)C(F)(F)F", "note": "(configuration not stated)", "Potency": "inconclusive [inhibitor, partial curve]"}
{"smiles": "COc1ccc(NC(=O)/C(Cl)=C(/Cl)S(=O)Cc2ccccc2Cl)cn1", "note": "(configuration not stated)", "Potency": "active: 5.01 µM"}
{"smiles": "CC1Cc2ccccc2N1C(=O)CSc1nnc(Cc2ccccc2)n1CCc1ccccc1", "note": "(configuration not stated)", "Potency": "inconclusive [inhibitor, full curve, poor fit]"}
{"smiles": "O=C(NNc1ccccc1Br)C(O)(c1cccc(C(F)(F)F)c1)c1cccc(C(F)(F)F)c1", "Potency": "inconclusive [inhibitor, single point]"}
{"smiles": "COc1cccc(C(=O)C(C#N)=C(SC)SC)c1", "Potency": "inconclusive [activator, full curve]"}
{"smiles": "COc1ccc(CNC(=O)C2COc3ccccc3O2)c(OC)c1", "note": "(configuration not stated)", "activity change, negative = inhibition": "inactive: -19.4% [at 46.1 µM]"}
{"smiles": "Oc1ccccc1/C=N/Nc1ncc(Br)cn1", "Potency": "inconclusive [inhibitor, full curve, poor fit]"}
{"smiles": "CCN(/C=N/c1sc2c(c1C#N)CCCCC2)CC", "Potency": "inconclusive [inhibitor, single point]"}
{"smiles": "CC(=O)Nc1nc2n(n1)C(c1ccc(Cl)cc1)C=C(C)N2", "note": "(configuration not stated)", "Potency": "inconclusive [activator, partial curve]"}
{"smiles": "COc1cc(NC(=O)Cn2nc(C(F)(F)F)c3c2CCCC3)cc(OC)c1OC", "activity change, negative = inhibition": "inactive: -12.5% [at 46.1 µM]"}
{"smiles": "COc1cc(C(c2c(C)[nH][nH]c2=O)c2c(C)[nH][nH]c2=O)cc(OC)c1OC", "activity change, negative = inhibition": "inactive: -6.77%"}
{"smiles": "O=C(O)C=C1CCN(c2ncc(C(F)(F)F)cc2Cl)CC1", "activity change, negative = inhibition": "inactive: -5.82% [at 46.1 µM]"}
{"smiles": "COc1ccc(OC)c(-c2cc(C(=O)Nc3c(C)nn(Cc4ccc(Cl)cc4)c3C)no2)c1", "Potency": "inconclusive [inhibitor, partial curve]"}
{"smiles": "Cc1nc(NC(=O)c2ccccc2)sc1-c1csc(NCc2ccco2)n1", "Potency": "inconclusive [inhibitor, single point]"}
{"smiles": "CCCCC(=O)Nc1c(O)c2ccccc2[nH]c1=O", "activity change, negative = inhibition": "inactive: -7.07% [at 46.1 µM]"}
{"smiles": "CCOc1ccc(NC(=S)Nc2ccc(C)c([N+](=O)[O-])c2)cc1", "Potency": "inconclusive [inhibitor, single point]"}
{"smiles": "CCOCCCNC(=S)N1CCN(Cc2ccco2)CC1", "activity change, negative = inhibition": "inactive: 1.06%"}
{"smiles": "O=C1C2C(c3ccccc3)C=CC(c3ccccc3)C2C(=O)N1c1ccncc1", "note": "(configuration not stated)", "Potency": "inconclusive [inhibitor, partial curve]"}
{"smiles": "CCOC(=O)Nc1c(Cl)n(C)c(=O)n(C)c1=O", "activity change, negative = inhibition": "inactive: 3.12%"}
{"smiles": "C#CCSc1nc(-c2ccccc2)cc(C(F)(F)F)c1C#N", "Potency": "inconclusive [inhibitor, single point]"}
{"smiles": "CC(=O)c1nnn(-c2nc(N)nc(N(c3ccccc3)c3ccccc3)n2)c1C", "Potency": "inconclusive [inhibitor, partial curve]"}
{"smiles": "CCOC(=O)Cn1c(=NC(=O)CSC(C)=O)sc2ccccc21", "Potency": "inconclusive [inhibitor, partial curve]"}
{"smiles": "CC(C)OC(=O)c1c2nc3ccccc3nc2n2c1[nH]c(=O)c1ccccc12", "Potency": "active: 10 µM"}
{"smiles": "Cc1cc(N2CCOCC2)nc(SCc2ccc(Cl)cc2Cl)n1", "Potency": "inconclusive [inhibitor, single point]"}
{"smiles": "CC1(C)Cc2noc(N)c2C(C)(C)N1OC(=O)c1ccccc1", "Potency": "inconclusive [inhibitor, single point]"}
{"smiles": "C=CCN(C(=O)CNC(=O)c1ccco1)C(C(=O)NC1CCCCC1)c1ccc(OC)cc1", "note": "(configuration not stated)", "activity change, negative = inhibition": "inactive: -22.2% [at 46.1 µM]"}
{"smiles": "COc1ccc(C2c3c(-c4cc(Cl)c(C)cc4O)n[nH]c3C(=O)N2Cc2cccnc2)cc1OC", "note": "(configuration not stated)", "Potency": "inconclusive [inhibitor, single point]"}
{"smiles": "COc1ccc(OC)c(S(=O)(=O)Nc2ccc(C)c(C)c2)c1", "Potency": "inconclusive [inhibitor, single point]"}
{"smiles": "O=C(NCc1ccc(Cl)cc1Cl)C1CCN(S(=O)(=O)c2ccc3c(c2)OCCCO3)CC1", "activity change, negative = inhibition": "inactive: -17.9% [at 46.1 µM]"}
{"smiles": "Cc1cccc(-n2c(CNC(=O)c3ccc(S(=O)(=O)N(C)C)cc3)nnc2SCC(=O)Nc2ccc(F)cc2)c1", "activity change, negative = inhibition": "inactive: 14.2%"}
{"smiles": "COCCCn1c(SCc2ccc(OC)cc2)nc2cc(OC)c(OC)cc2c1=N", "Potency": "inconclusive [inhibitor, single point]"}
{"smiles": "CCc1c(C)c(C#N)c2nc3ccccc3n2c1NCc1ccco1", "Potency": "inconclusive [inhibitor, single point]"}
{"smiles": "O=C(O)CCC(=O)Nc1ccc(Br)c(Cl)c1", "activity change, negative = inhibition": "inactive: -5.08% [at 46.1 µM]"}
{"smiles": "CCc1ccc(/C(C)=N/Nc2cc(Cl)nc(C)n2)cc1", "Potency": "inconclusive [inhibitor, partial curve]"}
{"smiles": "COc1cc2c(cc1NC(=O)COc1ccccc1OC)oc1ccccc12", "Potency": "inconclusive [inhibitor, partial curve]"}
{"smiles": "Cc1ccc(C)c(NC(=S)NC(NC(=O)Cc2ccccc2)C(Cl)(Cl)Cl)c1", "note": "(configuration not stated)", "Potency": "inconclusive [inhibitor, single point]"}
{"smiles": "CCOC(=O)CNC(c1ccccc1)c1cc(Br)ccc1NC(=O)OCC", "note": "(configuration not stated)", "Potency": "inconclusive [inhibitor, single point]"}
{"smiles": "CCN1c2ccccc2-c2nc3ccccc3n2C1c1ccco1", "note": "(configuration not stated)", "Potency": "inconclusive [inhibitor, single point]"}
{"smiles": "Cc1cccc(N(C)C(=O)COc2cc(=O)n(C)c3ccccc23)c1", "activity change, negative = inhibition": "inactive: 1.94% [at 46.1 µM]"}
{"smiles": "COc1ccc(C)cc1S(=O)(=O)N(CC(=O)Nc1cccc([N+](=O)[O-])c1)c1ccc(C)cc1", "Potency": "inconclusive [inhibitor, partial curve]"}
